The shares of active, inactive and inconclusive entries below differ from those in the screen. Potencies beside an inconclusive call are fits to weak or partial responses and may not hold up. Activity calls are given as the source filed them. Calls come from the whole dose curve; as a rule, active = well fitted inhibition curve with a large enough effect; inconclusive = small, poorly fitted or top-dose-only effect; inactive = no such curve, though single readings can be large or run the other way.
Tested on: pyruvate kinase (Trypanosoma brucei)
Test: qHTS of Trypanosoma Brucei Inhibitors: Confirmatory Assay for Cherry-picked Compounds; note: nearly all actives have a fitted effect of over 70% in size
Conditions: recombinant TbPYK, Kinase-Glo ATP luminescence; series mostly up to 76.9 µM
How it was run: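 Cherry-picked compounds were retested in concentration series against T. brucei PYK, 130 uM ADP, 45 min at room temperature; ATP read-out via Kinase-Glo Plus luminescence, with concentration-effect curves derived after normalization.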
Potency is the fitted concentration of half-maximal effect; tags give direction and shape of the fitted curve.

**Q.** With `O=C(NCCCNC(=O)c1cccs1)c1cccs1` as the compound, how does the Potency read?
**A.** inactive

**Q.** With `COC(=O)c1cc(-c2ccc(C)o2)nc2ccccc12` as the compound, how does the Potency read?
**A.** inconclusive: 31.6 µM [inhibitor, single point]

**Q.** Which Potency does the source give for `CCCN1CCN(C(=O)c2ccc(-c3ccc([N+](=O)[O-])cc3)o2)CC1` here?
**A.** inconclusive: 31.6 µM [inhibitor, partial curve]

**Q.** With `COc1ccc(Cc2c(-c3ccco3)nc3ccc(Br)cn23)c(C)c1` as the compound, how does the Potency read?
**A.** inconclusive: 28.2 µM [inhibitor, single point]

**Q.** With `CCOc1ccc(S(=O)(=O)N(C(=O)c2ccco2)c2cc3sc(=O)oc3c3ccccc23)cc1` as the compound, how does the Potency read?
**A.** inconclusive: 50.1 µM [inhibitor, single point]

**Q.** `O=[N+]([O-])c1cnc(Sc2ccncn2)c([N+](=O)[O-])c1` was tested. Which Potency did it give?
**A.** inactive

**Q.** Which Potency does the source give for `CC1(C)Cc2c(C#N)c(N)sc(=S)c2CS1` here?
**A.** inconclusive: 22.4 µM [inhibitor, partial curve]

**Q.** `CCOC(=O)C1CCCN(C(=O)c2ccc(-c3ccc([N+](=O)[O-])cc3)o2)C1` (configuration not stated) was tested. Which Potency did it give?
**A.** inconclusive: 35.5 µM [inhibitor, partial curve, poor fit]

**Q.** Which Potency does the source give for `OCc1ccccc1-c1nc(NCc2ccccc2)nc2ccsc12` here?
**A.** inconclusive: 17.8 µM [inhibitor, partial curve]

**Q.** `CN1CCN(S(=O)(=O)c2ccc(N3CCN(c4ccc(O)cc4)CC3)c([N+](=O)[O-])c2)CC1` was tested. Which Potency did it give?
**A.** active: 11.2 µM

**Q.** For `COc1ccccc1Cc1c(-c2ccco2)nc2c(C)cc(Br)cn12`, which Potency is on record?
**A.** inactive

**Q.** `CC1=C(C#N)C(=O)NC(=O)/C1=C/c1ccc(-c2ccc(S(N)(=O)=O)cc2)o1` was tested. Which Potency did it give?
**A.** inactive
